In the supplement of paper PMC12067230:
This is a noisy data set.

Test: amyloid nucleation score relative to library mode (yeast Sup35 reporter selection) (log enrichment difference); higher = more amyloid nucleation; sequences are the first 22 residues of the Bri2 peptide extended by up to 12 random residues
Conditions: random library (experiment): 1;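 active = nucleation score significantly above 0 at FDR 0.05; inactive = not significantly above 0 or absent from output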
Description: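 Random C-terminal extensions of the 22-aa Bri2 peptide by 12 NNK codons; premature stops give shorter extensions. Peptides were fused to the Sup35 nucleation domain in S. cerevisiae [psi-pin-] and selected on -ADE-URA plates for 7 d at 30 °C. The nucleation score is log(output/input), centred to the mode of each of 3 independent libraries (1 input, 3 technical output replicates), with duplicates merged. Sequences absent from the output ('random_non_nuc') were imputed with the library mode value, so they are given as censored (<). Nucleators are scores significantly >0 at FDR 0.05.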
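Also: [psi-pin-] Saccharomyces cerevisiae expressing SupN fusions, induced by 100 µM Cu2SO4, selected 7 d at 30 °C without adenine and uracil, scored by deep sequencing of output versus input.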

Row | Sequence | amyloid nucleation score
1 | EASNCFAIRHFENKFAVETLICAVVCWWQCRVTV | inactive
2 | EASNCFAIRHFENKFAVETLICETLVCRTQDPPG | inactive
3 | EASNCFAIRHFENKFAVETLICWIQGLGVVGARA | inactive
4 | EASNCFAIRHFENKFAVETLICNCAQKPRQLLAG | inactive
5 | EASNCFAIRHFENKFAVETLICNGKRS | -0.0755
6 | EASNCFAIRHFENKFAVETLICGSWGLLKELGRD | 1.73
7 | EASNCFAIRHFENKFAVETLICATALWMLTKWGR | 3.6
8 | EASNCFAIRHFENKFAVETLICLGRTRCKVSFVY | inactive
9 | EASNCFAIRHFENKFAVETLICVSA | inactive
10 | EASNCFAIRHFENKFAVETLICMIVYRRRYMVT | inactive
11 | EASNCFAIRHFENKFAVETLICGTCGYSYCTLHW | 5.66
12 | EASNCFAIRHFENKFAVETLICRDCCGISVLYYG | 4.49
13 | EASNCFAIRHFENKFAVETLICAWTEDKALRLRA | inactive
14 | EASNCFAIRHFENKFAVETLICCGDELSNEVVIR | 6.12
15 | EASNCFAIRHFENKFAVETLICTRR | 0
16 | EASNCFAIRHFENKFAVETLICWGFTTDGKEAGG | 5.41
17 | EASNCFAIRHFENKFAVETLICDGQDLGRGSLCP | inactive
18 | EASNCFAIRHFENKFAVETLICGLARLTLYWTPC | inactive
19 | EASNCFAIRHFENKFAVETLICCGGQTMTYVSWA | 7.99
20 | EASNCFAIRHFENKFAVETLICLHWYGTHGLLVL | inactive
21 | EASNCFAIRHFENKFAVETLICTDAMPIGTCCLD | 0.391
22 | EASNCFAIRHFENKFAVETLICDLTIDNLGIEHV | inactive
23 | EASNCFAIRHFENKFAVETLICLAALRRCIVEGK | inactive
24 | EASNCFAIRHFENKFAVETLICCGPLLLSEGMQP | 6.45
25 | EASNCFAIRHFENKFAVETLICCLRRFCAWLHVK | inactive
26 | EASNCFAIRHFENKFAVETLICGRLDCLCFVLC | inactive

Row | Sequence | amyloid nucleation score
27 | EASNCFAIRHFENKFAVETLICELIVECVEKPMG | inactive
28 | EASNCFAIRHFENKFAVETLICVYVAK | 5.87
29 | EASNCFAIRHFENKFAVETLICADSLGRRLASRG | 5.39
30 | EASNCFAIRHFENKFAVETLICAHELHRVNTTWW | 4.77
31 | EASNCFAIRHFENKFAVETLICGASRDCMVRCAA | inactive
32 | EASNCFAIRHFENKFAVETLICVNPLARYRTLRQ | 2.81
33 | EASNCFAIRHFENKFAVETLICESRSERLSTGDG | inactive
34 | EASNCFAIRHFENKFAVETLICFRYCICGYDWMS | inactive
35 | EASNCFAIRHFENKFAVETLICDQDPSMLACRCG | inactive
36 | EASNCFAIRHFENKFAVETLICMVSASPVRFLLW | inactive
37 | EASNCFAIRHFENKFAVETLICVTSASWAVRLKV | inactive
38 | EASNCFAIRHFENKFAVETLICEFLACLW | 7.92
39 | EASNCFAIRHFENKFAVETLICYLYV | 6.81
40 | EASNCFAIRHFENKFAVETLICCGYAPATDRYVA | 7.47
41 | EASNCFAIRHFENKFAVETLICVSSYSVHKVLGW | -0.111
42 | EASNCFAIRHFENKFAVETLICPAYPP | inactive
43 | EASNCFAIRHFENKFAVETLICQGKAS | inactive
44 | EASNCFAIRHFENKFAVETLICRVWFTTGWDGCR | inactive
45 | EASNCFAIRHFENKFAVETLICVQVVENTHTGVW | 4.74
46 | EASNCFAIRHFENKFAVETLICLYFSFD | 2.12
47 | EASNCFAIRHFENKFAVETLICKNCGG | inactive
48 | EASNCFAIRHFENKFAVETLICCNIVCASVAVRL | 6.51
49 | EASNCFAIRHFENKFAVETLICCMQ | 7.73
50 | EASNCFAIRHFENKFAVETLICTLARRWLSAYGI | inactive
51 | EASNCFAIRHFENKFAVETLICVNVDTCKVWSHS | 5.67
52 | EASNCFAIRHFENKFAVETLICVLWVILSVPDHV | inactive

Same assay, conditions: random library (experiment): 2

Row | Sequence | amyloid nucleation score
53 | EASNCFAIRHFENKFAVETLICFSRFILCFNSSL | inactive
54 | EASNCFAIRHFENKFAVETLICLNILRRVTIHLH | inactive
55 | EASNCFAIRHFENKFAVETLICTYCVAILLLVIF | inactive
56 | EASNCFAIRHFENKFAVETLICLN | inactive
57 | EASNCFAIRHFENKFAVETLICVGFMDSMLTIGV | inactive
58 | EASNCFAIRHFENKFAVETLICTLD | inactive
59 | EASNCFAIRHFENKFAVETLICTCDILSMDVT | 4.67
60 | EASNCFAIRHFENKFAVETLICYVLVTACVWVHC | inactive
61 | EASNCFAIRHFENKFAVETLICRSAFERFVSVVK | inactive
62 | EASNCFAIRHFENKFAVETLICDCSRVRYKDRPS | 6.33
63 | EASNCFAIRHFENKFAVETLICKTVCNRFAVYFR | inactive
64 | EASNCFAIRHFENKFAVETLICCDFYILLYSFNR | 7.54
65 | EASNCFAIRHFENKFAVETLICFFATITLTSFLE | inactive
66 | EASNCFAIRHFENKFAVETLICRFDATVYDGNGT | inactive
67 | EASNCFAIRHFENKFAVETLICLLLCMTVGVWSR | 5.12
68 | EASNCFAIRHFENKFAVETLICLVMVL | 2.33

Row | Sequence | amyloid nucleation score
69 | EASNCFAIRHFENKFAVETLICNMVHYKLWHTLR | inactive
70 | EASNCFAIRHFENKFAVETLICFIRLSHKLYCMV | inactive
71 | EASNCFAIRHFENKFAVETLICITCRP | inactive
72 | EASNCFAIRHFENKFAVETLICCKFIISVCNVRA | inactive
73 | EASNCFAIRHFENKFAVETLICARPIYFFRSMHA | 5.28
74 | EASNCFAIRHFENKFAVETLICEVNEGVLRFWVP | -0.104
75 | EASNCFAIRHFENKFAVETLICKSGVSSLVVGCF | inactive
76 | EASNCFAIRHFENKFAVETLICAFYAYFECVYYG | inactive
77 | EASNCFAIRHFENKFAVETLICFFMQR | 6.2
78 | EASNCFAIRHFENKFAVETLICVH | inactive
79 | EASNCFAIRHFENKFAVETLICCFDNMDLVKCCG | inactive
80 | EASNCFAIRHFENKFAVETLICGFIWLFHITCYV | inactive
81 | EASNCFAIRHFENKFAVETLICNTITSQTLELRL | 6.07
82 | EASNCFAIRHFENKFAVETLICWADIHSDTYPSR | 6.68
83 | EASNCFAIRHFENKFAVETLICYELTSMLDSTSW | inactive
84 | EASNCFAIRHFENKFAVETLICERGSSENGLYGV | inactive

Same assay, conditions: random library (experiment): 3

Row | Sequence | amyloid nucleation score
85 | EASNCFAIRHFENKFAVETLICDERGTMYRSWGT | inactive
86 | EASNCFAIRHFENKFAVETLICLTWVVTSLRARC | 2.87
87 | EASNCFAIRHFENKFAVETLICDKRVRKLIHST | inactive
88 | EASNCFAIRHFENKFAVETLICTDWSFRGIRTML | 4.36
89 | EASNCFAIRHFENKFAVETLICLATMGVWFSRCS | -0.00897
90 | EASNCFAIRHFENKFAVETLICAEVSCRSVPVLE | inactive
91 | EASNCFAIRHFENKFAVETLICVGLVYAARYGDR | inactive
92 | EASNCFAIRHFENKFAVETLICWGRDTWIHFK | inactive
93 | EASNCFAIRHFENKFAVETLICQLRPTGDSTQRL | inactive
94 | EASNCFAIRHFENKFAVETLICRML | -0.0863
95 | EASNCFAIRHFENKFAVETLICCAGSKLAGRW | 6.11
96 | EASNCFAIRHFENKFAVETLICREYLDIR | inactive
97 | EASNCFAIRHFENKFAVETLICHGGVLPRGKPAP | 0.749
98 | EASNCFAIRHFENKFAVETLICDMVNTIGMHRMR | inactive
99 | EASNCFAIRHFENKFAVETLICEASPRRDRWGTV | -0.225
100 | EASNCFAIRHFENKFAVETLICFMMNRNGTHRLV | inactive

Row | Sequence | amyloid nucleation score
101 | EASNCFAIRHFENKFAVETLICCCVDVDVCANVW | 8.38
102 | EASNCFAIRHFENKFAVETLICGGWRTGGSRLDA | 2.63
103 | EASNCFAIRHFENKFAVETLICGLQLEWLPLASE | inactive
104 | EASNCFAIRHFENKFAVETLICETGCTLLLVMVV | inactive
105 | EASNCFAIRHFENKFAVETLICFVHHFIG | inactive
106 | EASNCFAIRHFENKFAVETLICWNGERLYSTSKL | inactive
107 | EASNCFAIRHFENKFAVETLICRGVWSVKSTVRE | 2.29
108 | EASNCFAIRHFENKFAVETLICPNMFCYGVPIIC | inactive
109 | EASNCFAIRHFENKFAVETLICMPRVLKDHWWDE | 3.56
110 | EASNCFAIRHFENKFAVETLICFYGLSVKRAEHQ | -0.111
111 | EASNCFAIRHFENKFAVETLICPWRSGSWAREPQ | 0.461
112 | EASNCFAIRHFENKFAVETLICPAKTDVVAYKLE | inactive
113 | EASNCFAIRHFENKFAVETLICPFYYHWTVRSYR | inactive
114 | EASNCFAIRHFENKFAVETLICHLMMYTVSSS | inactive
115 | EASNCFAIRHFENKFAVETLICLVWCYYTCTLSV | inactive
